# Data from PubChem BioAssay AID463173 (ICCB-Longwood Screening Facility, Harvard Medical School, 2010).
# Out of some 52,000 compounds screened, about 4,300 (8.3%) were called active. Cut-off read from the data, not from the text of the source: active = survival mostly below about 52% (no sharp cut-off); inactive = mostly above about 56%. The list shows a part of the results.
# Tested on: DeltatarO mutant
# Assay: growth inhibition of S. aureus wild type versus tarO mutant, primary screen, teichoic acid synthesis inhibitors, RN4220, OD600 (AID 463173)
# Settings: OD600, 18 h, hits give low values, screened at 18.75 µg/mL (by protocol)
row,Compound,survival
1,Cc1nc(-c2ccc(Cl)cc2)sc1CCNC(=O)Cc1ccc(F)cc1,inactive: 98%
2,COc1ccc(C)cc1NC(=O)Cn1c(=O)cc(C)c2c(C)nn(C)c21,inactive: 77%
3,Cc1ccc(CN2CCN(C3CCN(C(=O)c4ccccc4)CC3)C(=O)C2=O)cc1,inactive: 88%
4,Cc1ccc(CSc2oc(-c3ccco3)nc2S(=O)(=O)c2ccc(C)cc2)cc1,inactive: 62%
5,COc1cc(/C=C(\C#N)c2nc3ccccc3[nH]2)cc(Cl)c1OCc1ccccc1Cl,inactive: 68%
6,CCOC(=O)c1ccc(NC(=O)/C(C#N)=C/c2ccc(OC)cc2)cc1,inactive: 82%
7,O=C(CSc1nccc(=O)[nH]1)Nc1cccc2ccccc12,inactive: 68%
8,S=c1nc(CNc2ccccc2)[nH][nH]1,inactive: 90%
9,CCc1ccc(-n2c(=O)c3c(C)c(C)sc3n(CC(=O)NCc3ccc(C)cc3)c2=O)cc1,inactive: 138%
10,CCCCc1nn2c(=O)cc(COC(=O)c3cccc(NC(=O)CCc4ccccc4)c3)nc2s1,inactive: 91%
11,CCCN(CCC)C(=O)Cn1c(=O)n(-c2ccccc2)c(=O)c2c3c(sc21)CCCC3,inactive: 74%
12,N#C/C(=C/c1ccc(Cl)cc1)c1nc(-c2ccc(Br)cc2)cs1,inactive: 65%
13,O=S(=O)(NCc1nc2cccnc2n1Cc1ccccc1)c1ccc2c(c1)CCCC2,inactive: 73%
14,Cc1c(NC(=O)Nc2ccc(Br)cc2F)sc2nc3n(c(=O)c12)CCC(C)CC3 (stereo not given),inactive: 98%
15,CCOC(=O)c1c(S(=O)(=O)NCC(=O)N2CCN(c3ccccc3)CC2)c(C)n(C)c1C,inactive: 87%
16,COc1ccccc1CNC(=O)CCn1c(=O)c2ccccc2n(CC(=O)Nc2ccc(C)cc2Cl)c1=O,inactive: 77%
17,Fc1ccc(C(NCCc2ccc(Cl)cc2)c2nnc(-c3ccccc3)o2)c(Cl)c1 (stereo not given),active: -2%
18,CCc1cccc(C)c1NC(=O)c1cc(S(=O)(=O)NCc2ccccc2Cl)ccc1F,inactive: 97%
19,CC(=O)Nc1ccc(-c2nc3cc(Cl)ccc3o2)cc1,inactive: 85%
20,CC(=O)NCC(c1ccc2c(c1)OCO2)N1CCN(c2ccccc2)CC1 (stereo not given),inactive: 80%
21,CCCn1c2ccccc2c2cnn(CC(=O)N(C)c3ccccc3CC)c(=O)c21,inactive: 82%
22,Cc1ccc(-c2cc(-c3ccc4c(c3)OCO4)c(C#N)c(N)n2)cc1,inactive: 88%
23,Cc1[nH]c2ccc(-c3nnc(SCCC#N)n3C)cc2c1C,inactive: 92%

row,Compound,survival
1,COc1cc2c(cc1OC)C(Cc1ccc(O)cc1)N(C)CC2 (stereo not given),inactive: 102%
2,O=C(NC1CSC/C1=N\O)c1ccccc1 (stereo not given),inactive: 103%
3,COc1cc2nc(SCC(=O)Nc3c(C)cc(C)cc3C)n3nc(CCn4c(C)nc5ccccc54)nc3c2cc1OC,inactive: 81%
4,Cc1nn(CC(=O)Nc2ccccc2C(F)(F)F)c(=O)c2cccn12,inactive: 93%
5,CCCCN(CC)CCNC(=O)CN1C(=O)COc2ccc(S(=O)(=O)N3CCCC3)cc21,inactive: 94%
6,Cc1ccc(CCNC(=O)CCn2nc(-c3ccccc3)ccc2=O)cc1,inactive: 73%
7,Cn1c(=O)c(=O)n(C)c2cc(NC(=O)c3cccc(F)c3)c(Cl)cc21,inactive: 74%
8,CCCSCCCNC(=O)C1CCCN(c2nn3cc(-c4ccc(OC)cc4)nc3s2)C1 (stereo not given),inactive: 73%
9,CCOc1ccccc1CNC(=O)CCCn1ncn2c(cc3occc32)c1=O,inactive: 75%
10,CCOc1ccc(C(=O)c2cn(CC(=O)Nc3ccc(F)cc3)c3cc4c(cc3c2=O)OCO4)cc1,inactive: 133%
11,COc1ccc(N(CC(=O)NCc2ccccc2Cl)S(=O)(=O)c2c(C)nn(C)c2C)cc1,inactive: 70%
12,COc1ccc(CCNC(=O)Cn2c(=O)nc(-c3ccccc3)c3ccccc32)cc1OC,inactive: 113%
13,Cc1ccc2cccc(NC(=O)COc3cc(C)c(Cl)c(C)c3)c2n1,inactive: 75%
14,CN(C)CCCN(C(=O)c1ccc(Br)s1)c1nc2ccc(F)cc2s1,active: -5%
15,CCS(=O)(=O)c1ncc(N(Cc2ccccc2)Cc2ccco2)c(C(=O)Nc2ccc(C)c(C)c2)n1,inactive: 52%
16,COCCNC(=O)CCc1c(C)nc2c(-c3ccc(F)cc3)c(C)nn2c1C,inactive: 85%
17,COc1cc(C(CC(=O)Nc2ccc(F)cc2F)N2Cc3ccccc3C2=O)cc(OC)c1OC (stereo not given),inactive: 93%
18,COc1ccc(CCNC(=O)CCCCn2c(=O)c3ccccc3n(Cc3ccccc3C)c2=O)cc1OC,inactive: 95%
19,CCCCCn1cc2c(c1-c1ccc(Br)cc1)c(=O)n(C)c(=O)n2C,inactive: 79%
20,Cc1ccc(-c2cc(C(F)F)n3ncc(C(=O)Nc4cn(C)nc4C)c3n2)cc1,inactive: 89%
21,CCC(=O)Nc1ccc(CC)cc1-c1nc2ccccc2n(CC(=O)Nc2cccc(Cl)c2)c1=O,inactive: 70%
22,COc1cccc(C(=O)N2CCN(C3CCC(c4ccccc4)CC3)CC2)c1OC (stereo not given),inactive: 96%
23,Cc1nc2ncnn2c(C)c1CCC(=O)N1CCN(c2ccccc2)CC1,inactive: 91%

row,Compound,survival
1,CCc1ccccc1NC(=O)Cn1c(=O)n(-c2ccc(C)cc2)c(=O)c2c1c1cc(C)ccc1n2C,inactive: 90%
2,COc1ccc(OC)c(NC(=O)c2cc3cc(C)ccc3n2C)c1,inactive: 51%
3,Cc1ccccc1NC(=O)N1CCc2c(sc3c2CCCC3)C1c1ccccc1 (stereo not given),inactive: 102%
4,COc1ccc(NC(=O)c2ccc3nc(CCc4ccccc4)oc3c2)c(OC)c1,inactive: 117%
5,O=C(NCCc1ccccc1)c1ccc(Cn2c(SCc3cccc(F)c3)nc3cccnc32)cc1,inactive: 70%
6,CCc1ccc(-n2c(=O)c3sc4ccccc4c3n(CC(=O)NC3CCCCC3)c2=O)cc1,inactive: 97%
7,CCC(C)C(=O)Nc1ccc(C(C)CC)cc1 (stereo not given),inactive: 100%
8,CC(C)CCNC(=O)CSc1nc2ccccc2nc1Cc1ccccc1,inactive: 82%
9,Cc1ccc(NC(=O)Cn2nc(-c3ccncc3)ccc2=O)cc1Cl,inactive: 120%
10,Cc1cc(NC(=O)CCS(=O)(=O)c2cc(Br)cc3c2N(C(=O)C2CC2)CC3)ccc1Br,inactive: 83%
11,COc1ccc(-c2c3c(=O)n(C)c(=O)n(C)c3c3c(-c4cccc(C)c4)nc4ccccc4n23)cc1,inactive: 83%
12,OCCNc1nc2ccccc2n1CCOc1ccccc1,inactive: 68%
13,C=CCn1c(-c2ccccc2)n[nH]c1=S,inactive: 76%
14,CCOc1ccc(NC(=O)Cn2cc(C(=O)c3ccc(CC)cc3)c(=O)c3cc(OC)c(OC)cc32)cc1,inactive: 98%
15,COc1ccc(S(=O)(=O)NCCCO)cc1-c1nnc2c3ccccc3c(C)nn12,inactive: 124%
16,CCc1ccc(CCC(=O)Nc2ccc(S(N)(=O)=O)cc2)o1,inactive: 78%
17,COc1ccc2cc3cc(C(=O)N4CCN(c5cccc(Cl)c5)CC4)sc3nc2c1,inactive: 101%
18,Cc1ccc(Nc2nc(C)cs2)cc1,inactive: 82%
19,Cc1cc(Oc2c(C(F)(F)F)oc3c(CN4CCC(C)CC4)c(O)ccc3c2=O)cc(C)c1Cl,inactive: 70%
20,C=CCNc1sc(C(=O)C(C)(C)C)c(N)c1C#N,inactive: 99%
21,Cc1cccc(-n2ccnc2SCC(=O)Nc2ccc(F)cc2F)c1C,inactive: 78%
22,Cc1ccc(C)c(CN2CCC(CNC(=O)Nc3ccc(Br)cc3F)CC2)c1,inactive: 81%
23,Cc1ccc(C)c(CNC(=O)c2ccc3c(c2)nc2n3CCCCC2)c1,inactive: 91%

row,Compound,survival
1,Cc1ccc(S(=O)(=O)NC(=O)CC#N)cc1,inactive: 95%
2,COc1cc2c(cc1OC)C(COc1ccc3c(C)cc(=O)oc3c1)N(C(=O)C(C)C)CC2 (stereo not given),inactive: 82%
3,CCOC(=O)c1nc(Nc2ccc(C(C)=O)cc2)c2ccccc2n1,inactive: 49%
4,CN(C(=O)c1ccc(NC(=O)c2ccco2)cc1)C1CCCCC1,inactive: 61%
5,O=C(Nc1c(C(=O)Nc2ccc(F)cc2)oc2ccccc12)c1cc2ccccc2o1,active: 47%
6,COc1ccc(Cn2c(=O)c3cccnc3n(CC(=O)Nc3ccc(C)c(F)c3)c2=O)cc1,inactive: 104%
7,O=C(c1ccc(CSc2nc3ccncc3n2Cc2ccc(F)cc2)cc1)N1CCCCCC1,inactive: 71%
8,Cc1ccc(-c2nc3c4ccccc4[nH]c(=O)n3n2)cc1,inactive: 60%
9,CCN(C(=O)/C=C/c1cc(OC)c(OC)c(OC)c1)C1CCCCC1,inactive: 89%
10,CCc1nc2ccc(C(=O)N3CCN(c4cccc(C)c4C)CC3)cc2nc1CC,inactive: 76%
11,O=C1CC(c2cccc(O)c2)c2c(nc(SCc3ccccc3F)[nH]c2=O)N1 (stereo not given),inactive: 106%
12,CCOc1ccc(C(=O)N(Cc2sccc2C)C2CCS(=O)(=O)C2)cc1 (stereo not given),inactive: 77%
13,CCOc1ccc(-c2cc(OC(=O)c3ccc(OC)cc3)c3c(C)oc(C)c3c(=O)c2)cc1,inactive: 65%
14,COc1cc2nc(C3CCC3)n(NC(=O)COc3ccccc3)c(=O)c2cc1OC,inactive: 92%
15,C[C@H](NC(=O)OC(C)(C)C)c1nnc(SCc2c(F)cccc2Cl)o1,inactive: 72%
16,CCOC(=O)c1ccc(N2N=C(C(F)(F)F)CC2=O)cc1,inactive: 47%
17,CCc1ccc(NC(=O)Cn2nc3c4ccccc4n(Cc4ccccc4)cc-3c2=O)cc1,inactive: 83%
18,CCC(=O)Nc1nc(-c2ccc(C)c(C)c2)cs1,inactive: 78%
19,O=C(Nc1ccc(OC(F)(F)F)cc1)c1nc2ccccc2nc1N1CCCCC1,inactive: 90%
20,COc1cccc(NC(=O)CSc2nc3cc(OC)c(OC)cc3c3nc(-c4ccccc4)nn23)c1,inactive: 76%
21,CCn1c2ccccc2c2cc(CN3CCN(Cc4ccccc4Cl)CC3)ccc21,active: -1%
